Data as given in PubChem BioAssay AID488969 (Vanderbilt High Throughput Screening Facility, 2010).
In all, about 110,000 compounds were measured (“z-score”: median about -0.1, highest 2% from about 2 on). The list shows a part of the results. Active and inactive are the calls of the source.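 The calls were made as follows: active = z-score in the third read window above 3 or below -3; inactive = the rest.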

molecular target: Metabotropic glutamate receptor 8 (Rattus norvegicus) (UniProt P70579); assay: mGluR8 Gi/Go-coupled signaling modulation – cell-based, rat, thallium flux, HTS, primary screen (AID 488969); settings: HEK293 rat mGluR8, GIRK (G protein-gated inwardly rectifying potassium channel) thallium flux, FluoZin2; at 10 µM; stronger effect = higher value; submaximal glutamate (EC20) added with thallium
UniProt P70579, sequence (P70579 whole entry, looked up): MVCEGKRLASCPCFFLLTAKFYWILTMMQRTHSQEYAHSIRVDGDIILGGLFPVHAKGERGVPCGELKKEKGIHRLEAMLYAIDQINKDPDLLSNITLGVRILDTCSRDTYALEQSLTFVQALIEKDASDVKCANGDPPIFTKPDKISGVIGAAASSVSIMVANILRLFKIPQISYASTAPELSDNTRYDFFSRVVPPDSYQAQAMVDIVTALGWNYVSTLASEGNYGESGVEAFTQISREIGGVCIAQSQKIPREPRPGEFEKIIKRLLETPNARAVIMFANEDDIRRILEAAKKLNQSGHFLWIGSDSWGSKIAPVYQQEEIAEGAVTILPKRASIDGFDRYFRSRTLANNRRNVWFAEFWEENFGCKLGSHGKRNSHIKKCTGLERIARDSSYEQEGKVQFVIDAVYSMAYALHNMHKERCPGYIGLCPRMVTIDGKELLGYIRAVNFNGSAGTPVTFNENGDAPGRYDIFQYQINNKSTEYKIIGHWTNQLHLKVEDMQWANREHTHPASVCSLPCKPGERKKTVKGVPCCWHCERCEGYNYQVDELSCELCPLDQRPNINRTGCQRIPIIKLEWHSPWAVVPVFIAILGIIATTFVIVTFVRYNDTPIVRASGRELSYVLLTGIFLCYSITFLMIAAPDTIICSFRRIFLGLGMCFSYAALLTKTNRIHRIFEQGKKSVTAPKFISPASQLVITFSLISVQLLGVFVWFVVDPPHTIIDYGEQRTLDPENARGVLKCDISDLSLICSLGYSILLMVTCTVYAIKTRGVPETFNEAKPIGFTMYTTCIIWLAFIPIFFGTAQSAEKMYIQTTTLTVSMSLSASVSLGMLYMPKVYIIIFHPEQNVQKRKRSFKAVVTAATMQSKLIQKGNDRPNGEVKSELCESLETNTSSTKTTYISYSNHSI

SMILES	z-score
O=C(NCc1ccccc1)C12CC3CC(CC(C3)C1)C2	-0.456
COc1ccc(CNc2nc3ccccc3n2CCN2CCOCC2)cc1	0.553
Cc1ccc(C)c(S(=O)(=O)Nc2ccc(S(=O)(=O)Nc3onc(C)c3C)cc2)c1	0.0505
CC1Cc2ccccc2N1C(=O)c1cc2sccc2n1Cc1ccccc1 (configuration not stated)	-0.0901
Cc1cccc(CN2CCc3c(OCC(=O)NCc4ccco4)cccc3C2=O)c1	-0.878
NC(N)=Nc1nc(C2COc3ccccc3O2)cs1 (configuration not stated)	-0.488
COc1ccc(Cc2nnc(SCC(=O)N3CCN(c4ccccc4)CC3)o2)cc1	0.468
CCc1cc2c3c(c(=O)oc2cc1O)CCCC3	-1.33
O=C(NC1(C(F)(F)F)NC(=O)N(C2CCCC2)C1=O)C1CC1 (configuration not stated)	-0.129
COc1ccc(-c2ccc(=O)n(Cc3cc(=O)n4ccccc4n3)n2)cc1	0.329
Cn1c(=O)c2c(ncn2CCN(CCO)Cc2ccccc2)n(C)c1=O	0.0401
Cc1cccc(CCNS(=O)(=O)c2ccc(S(=O)(=O)N3CCCCC3)cc2)c1	0.32
N/C(=N\OC(=O)CCCc1ccccc1)c1cccnc1	-0.188
Cn1ncc(C#N)c1/N=C/N1CCCCC1	-0.153
Cc1ccc(-c2csc3ncnc(NS(=O)(=O)c4ccc(Cl)cc4)c23)cc1	-0.524
CCOC(=O)C1=C(NC#N)OC(C)=C(C)C1c1ccc(O)cc1 (configuration not stated)	1.53
O=S(=O)(c1ccccc1C(F)(F)F)N1CCN(S(=O)(=O)c2ccccc2C(F)(F)F)CC1	0.189
COc1ccccc1NS(=O)(=O)c1ccc(NC(=O)CCNC(=O)c2ccco2)cc1	-1.14
Cc1ccc(C2=CC(C)(c3ccc(C)cc3)Nc3nc(C(F)(F)F)nn32)cc1 (configuration not stated)	0.165
Cc1cccc(CSc2nnc(C)c(=O)n2N)c1	-0.107
O=S(=O)(NCC(c1ccco1)N1CCN(c2ccc(F)cc2)CC1)c1ccc(F)cc1 (configuration not stated)	-0.142
O=C(C1c2ccccc2Oc2ccccc21)N1CCN(c2ccc(Cl)cc2)CC1	0.867
Cn1c(=N)n(CC(=O)c2ccc(Br)s2)c2ccccc21	-0.0582

SMILES	z-score
O=C(C(Cl)Cl)N1CCN(Cc2ccccc2)CC1	0.106
Cc1cccn2cc(CNS(=O)(=O)c3cccc(F)c3)nc12	-0.127
O=C(CSc1ccc(Cl)cc1)Nc1ccc(-c2nc3ccccc3[nH]2)cc1	0.471
COC(=O)c1scc(C)c1NC(=O)Cc1ccccc1	-0.147
CCNC(=O)n1nccc1C(C)Oc1ccc(Cl)cc1 (configuration not stated)	-0.325
CC(=O)c1ccc(NC(=O)Nc2ccccc2)cc1	0.41
Cc1ccc(NC(=S)N/N=C2/CCCc3c(C)cc(C)cc32)cc1	0.985
O=C(NCc1cccnc1)c1ccc(=O)oc1	0.00474
CC(=O)Nc1cccc(C(=O)OCc2ccc(C(=O)Oc3ccc(Cl)cc3)cc2)c1	0.195
COc1ccc(CCNC(=O)CN2CCCc3ccccc32)cc1OC	-0.0618
O=C(CCCC(=O)OCC(=O)c1cccs1)Nc1ccc(Oc2ccccc2)cc1	0.148
N#CC1=C2SCN(Cc3ccco3)CN2C(=O)CC1c1ccccc1F (configuration not stated)	-0.654
CC(C)c1ccc(OCC(O)Cn2cnc3ccccc32)cc1 (configuration not stated)	-0.507
COC(=O)c1cc2c(s1)-c1ccccc1OC2	-0.0119
O=C(CNc1cccc2ccccc12)N/N=C/c1ccc([N+](=O)[O-])cc1	1.86
CON(C)c1nc(OCCNC(=O)COc2ccc(Cl)cc2C)nc(N(C)C)n1	0.98
CCc1nnc(NC(=O)CSc2nnc(Cc3cccn3C)n2CCOC)s1	-0.0814
O=C1c2cccc(OCC(=O)N3N=C(c4cccs4)CC3c3ccc(F)cc3)c2CCN1Cc1ccccc1 (configuration not stated)	-0.0715
COC(=O)CNC(=O)CNC(=O)Nc1ccccc1Cl	-0.0464
CC1CCCN(C(C(=O)NC2CCCCC2)c2cc3c(cc2[N+](=O)[O-])OCO3)C1 (configuration not stated)	-0.149
CN(CC(O)CON=C1c2ccccc2-c2ccccc21)S(=O)(=O)c1ccc(Br)cc1 (configuration not stated)	-0.0439
CC1CCCN(C(=O)C2CCN(CC(C)c3ccccc3)CC2)C1 (configuration not stated)	-0.276
O=S(=O)(c1ccccc1)c1nc(-c2ccco2)oc1NCc1ccco1	-0.338

SMILES	z-score
O=C1c2ccccc2C(=O)N1CC1c2ccccc2CCN1C(=O)N1CCOCC1 (configuration not stated)	0.611
CCN(c1ccc(OC)cc1)c1ncnc2nc[nH]c12	-0.267
Cc1ccc(NC(=O)CN(C)C(=O)Cn2cc(C(F)(F)F)cc(Cl)c2=O)cc1	-0.0337
Nn1cnnc1N/N=C/c1cc([N+](=O)[O-])c(Cl)cc1Cl	-0.3
Cc1ccc(C(=O)Nn2c(N)c(S(=O)(=O)c3ccc(C)cc3)c3nc4ccccc4nc32)cc1	0.0666
CCOc1ccccc1Nc1nc(-c2sc(NC(=O)c3ccc([N+](=O)[O-])cc3)nc2C)cs1	0.209
Cc1ccc(OCc2n[nH]c(=S)n2C2CCCCC2)cc1	-1.04
O=C(Nc1nnc(C(F)(F)F)s1)C1COc2ccccc2O1 (configuration not stated)	-0.109
Cc1csc(NC(=O)C2CCCN(S(=O)(=O)c3cccnc3)C2)n1 (configuration not stated)	0.169
Cn1c(SCC(=O)c2ccc3c(c2)Cc2ccccc2-3)nnc1-c1cccc(N)c1	-0.227
Cc1ccc(Cn2c(SCC(=O)N3CC(=O)Nc4ccccc43)nc3ccccc3c2=O)cc1	1.31
Cc1ccc(OCCCCNC(C)(C)C)c([N+](=O)[O-])c1	-0.262
O=C(Cn1ncc2ccccc21)N1CCN(c2cccc(C(F)(F)F)c2)CC1	-0.0256
Clc1ccccc1CSc1cc2c(nn1)-c1ccccc1CC2	-0.0174
COc1ccc(/C(C)=N/NC(=O)c2ccc(N(C)C)cc2)cc1	-0.494
CCc1ccc(NC(=O)c2cc(C(C)C)on2)cc1	0.938
COc1ccc(-n2c(-c3ccc(Br)cc3)nc(=S)c3c2CCCC3)cc1	-0.475
CCOc1nnc(C)c2c(C)n(-c3cccc(OC)c3)nc12	0.0308
COc1cccc(N=c2oc3c(C)ncc(CO)c3cc2C(=O)Nc2ccccc2OC)c1	0.0916
CCCNC(=O)NC(C(=O)OC)C12CC3CC(CC(C3)C1)C2 (configuration not stated)	0.234
N#Cc1c(-c2ccco2)nc(SCC(=O)Nc2ccc(S(N)(=O)=O)cc2)[nH]c1=O	-0.14
CCc1c(C)sc(NC(=O)CC#N)c1C#N	0.000574
COc1ccc(-c2nc(NC(=O)CSc3nnc(C)s3)ns2)cc1	1.21

SMILES	z-score
COc1ccc(NC(=O)C(NC(=O)c2ccc(=O)[nH]c2)c2ccccc2)cc1 (configuration not stated)	-0.0633
Cc1ccc(COc2ccc(/C=N/O)cc2)cc1	-0.961
CCOC(=O)C1=C(O)CSC1=Nc1cccc2ccccc12	-1.05
O=C(Cc1cccs1)NNC(=S)NC(=O)c1ccccc1	0.646
COC(=O)NNC(=O)COc1cc(C)ccc1C	0.0705
COc1ccc(-n2nnnc2SC(C)C(N)=O)cc1 (configuration not stated)	0.0936
O=C(CN1N=C(C(F)(F)F)CC1(O)c1ccc([N+](=O)[O-])cc1)c1ccccc1 (configuration not stated)	1.24
O=[N+]([O-])c1ccc(-n2nnnc2-c2ccccc2)c([N+](=O)[O-])c1	-0.372
CCCc1nnc(NC(=O)CCC(=O)N2CCCCCC2)s1	-1.15
CCN(/N=C/c1ccccc1)c1cc(=O)n(C)c(=O)[nH]1	-0.297
CCN(CC)S(=O)(=O)c1cc(C(=O)Nc2cc(Cl)ccc2N2CCN(C)CC2)ccc1Cl	0.364
Cc1ccc(NC(=O)CN2C(=O)S/C(=C/c3ccc(-c4cc(C(=O)O)ccc4C)o3)C2=O)cc1C	-1.41
CC1CCN(c2ccccc2NC(=S)NC(=O)c2ccco2)CC1	active: 3.89
CCOC(=O)c1sc(NC(=O)Nc2ccccc2Cl)cc1C	-0.499
CCSc1nnc(NC(=O)c2ccco2)s1	0.0787
O=C(COC(=O)CC1CC2CCC1C2)NC(=O)NCc1ccco1 (configuration not stated)	-0.781
CS(=O)(=O)Nc1ccc(N2CCCCC2)c(Cl)c1	0.507
CCOC(=O)/C=c1\s/c(=C\c2ccccc2OC)c(=O)n1CC(=O)N1CCOCC1	0.423
C=CCc1ccc(OCC(O)CO)c(OC)c1 (configuration not stated)	-0.508
CC1CN(c2oc(-c3ccccc3Cl)nc2C#N)CC(C)O1 (configuration not stated)	-0.0825
CC1=C(C(=O)Nc2ccccc2)C2(CCCCC2)C(C(N)=O)C(=S)N1 (configuration not stated)	-0.285
CN(C)c1ccnc(Oc2ccccc2)c1C#N	-0.184
CCn1cc(C(=O)NCC2CCCO2)c(=O)c2cc(S(=O)(=O)N3CCCCCC3)ccc21 (configuration not stated)	-0.167

SMILES	z-score
O=C(Nc1ccc(/C=C/c2nc3ccccc3o2)cc1)c1cccc(C(F)(F)F)c1	-0.18
Nc1ncnc(Sc2ccccc2)c1[N+](=O)[O-]	-0.174
N#C/C(=C\c1ccc(OC(=O)c2ccccn2)cc1)C(N)=O	-0.197
Cc1c(NC(=O)C2(c3ccccc3)CCCC2)c(=O)n(-c2ccccc2)n1C	-0.188
O=C(NCC(F)(F)F)Nc1nnc(C(F)(F)F)s1	0.0543
Clc1ccc2c(N/N=C/c3ccccc3Br)ccnc2c1	-0.0886
COCCn1c(NCc2ccccc2)nc2c1c(=O)[nH]c(=O)n2C	0.0776
COc1ccc(OC)c2sc(NC(=O)C3CC3)nc12	0.399
CN(C)S(=O)(=O)c1ccc(-c2cn3ccccc3n2)cc1	-0.363
Cc1cc(NC(=O)c2ccc3c(c2)OCO3)no1	0.871
CCNC(=S)Nc1scc(-c2ccccc2)c1C(=O)OCC	active: 6.92
CCOc1ccc(C(=O)NCCc2ccccc2)cc1	0.0133
c1ccc(Cc2nnc3sc(Nc4ccccc4)nn23)cc1	-0.331
O=C(O)Cc1sc(-c2ccc(Cl)cc2)nc1-c1ccccc1	-0.396
CS(=O)(=O)N(CC(=O)N1CCc2ccccc2C1)Cc1ccccc1	-0.301
O=C(N=Nc1c(O)[nH]c2ccc(Cl)cc12)c1cc(-c2cccs2)nc2ccccc12	-0.0899
O=C(O)c1ccc(CNCc2c(Cl)cccc2Cl)cc1	0.0291
CCOCCCNC(=O)c1ccc(OC(C)=O)cc1	0.0534
COc1ccccc1C(NC(=O)C1CCCCC1)c1c(O)ccc2ccccc12 (configuration not stated)	-0.0917
O=C(NCc1cccnc1)c1cc(Sc2cccc(Cl)c2)nc2ccccc12	-1.07
